Test results: the supplement of paper PMC9446081
About 220 (0.56%) of roughly 39,000 compounds showed activity. Some of the results follow.

Each compound was assayed on Escherichia coli K-12 BW25113 (assay: relative growth (OD600 normalised to plate interquartile mean) (fraction); higher = less growth inhibition, active = 0.2 or less). Settings: 50 µM; LB; incubation time: overnight (16-24 h).
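Further: static incubation at 37 °C against the wild-type strain, values averaged over two biological replicates.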

Row | SMILES | relative growth
1 | Cc1noc(C)c1NC(=O)N(C)C[C@@H]1OCCCC[C@H](C)Oc2ccc(NC(=O)Nc3ccc(C(F)(F)F)cc3)cc2C(=O)N([C@H](C)CO)C[C@@H]1C | inactive: 1.03
2 | C=CCC[C@@H](Cc1ccc(F)cc1)C(=O)O[C@H](CNC(=O)[C@@H](CC=C)CC(=O)N[C@@H](CO)Cc1ccccc1)c1ccccc1 | inactive: 1.04
3 | COc1cccc(S(=O)(=O)N(C)C[C@@H]2Oc3ncc(C#Cc4ccccc4)cc3C(=O)N([C@H](C)CO)C[C@@H]2C)c1 | inactive: 1.04
4 | C[C@@H]1CN([C@H](C)CO)C(=O)Cc2cc(NC(=O)CCCN(C)C)ccc2O[C@H]1CN(C)C(=O)Nc1ccc2c(c1)OCO2 | inactive: 1.01
5 | C[C@H](O)C#Cc1ccc2c(c1)O[C@H](CN(C)C(=O)c1ccncc1)[C@H](C)CN([C@H](C)CO)S2(=O)=O | inactive: 0.987
6 | COc1ccc2c3c(n(c2c1)C)[C@@H](CO)N(Cc1cc(cc(c1)OC)OC)C[C@]13CCN(CC1)S(=O)(=O)c1cn(cn1)C | inactive: 0.973
7 | C[C@@H]1CCCCO[C@@H](CN(C)C(=O)Nc2ccc(F)cc2)[C@@H](C)CN([C@H](C)CO)C(=O)c2cc(NC(=O)Nc3ccc4c(c3)OCO4)ccc2O1 | inactive: 1.01
8 | C[C@H](CO)N1C[C@H](C)[C@H](CN(C)S(=O)(=O)c2ccc(C#N)cc2)Oc2ncc(-c3ccccc3)cc2C1=O | inactive: 0.991
9 | COc1ccc(NC(=O)N(C)C[C@@H]2Oc3ccc(NC(=O)CCN4CCOCC4)cc3CC(=O)N([C@H](C)CO)C[C@H]2C)cc1 | inactive: 1.02
10 | C[C@@H]1CN([C@@H](C)CO)C(=O)c2cccc(NC(=O)c3cnccn3)c2O[C@@H]1CN(C)C(=O)NC1CCCCC1 | inactive: 0.995
11 | C[C@H](CO)N1C[C@H](C)[C@@H](CN(C)C)OCCCC[C@H](C)Oc2ccc(NC(=O)CCCN(C)C)cc2C1=O | inactive: 0.978
12 | C[C@@H]1CN([C@@H](C)CO)C(=O)Cc2cc(NC(=O)CCCN(C)C)ccc2O[C@H]1CN(C)S(=O)(=O)c1cccs1 | inactive: 1.03
13 | C[C@@H]1CN([C@@H](C)CO)C(=O)c2cc(NC(=O)Nc3ccc(F)cc3)ccc2O[C@@H](C)CCCCO[C@H]1CN(C)Cc1ccncc1 | inactive: 1.01
14 | COc1ccc(S(=O)(=O)Nc2ccc3c(c2)C(=O)N([C@H](C)CO)C[C@H](C)[C@H](CN(C)S(=O)(=O)c2ccc(F)cc2)O3)cc1 | inactive: 1.03
15 | C[C@@H]1CN([C@@H](C)CO)S(=O)(=O)c2ccc(Br)cc2O[C@H]1CN(C)C(=O)c1ccccc1 | inactive: 0.978
16 | O=C(C[C@@H]1CC[C@H]2[C@@H](COC[C@@H](O)CN2C(=O)Nc2cc(Cl)cc(Cl)c2)O1)N1CCOCC1 | inactive: 0.96
17 | Cc1ccc(S(=O)(=O)Nc2ccc3c(c2)CC(=O)N([C@H](C)CO)C[C@@H](C)[C@H](CN(C)Cc2ccc(Cl)c(Cl)c2)O3)cc1 | inactive: 1.01
18 | Cc1ccc(S(=O)(=O)Nc2ccc3c(c2)CC(=O)N([C@H](C)CO)C[C@@H](C)[C@@H](CN(C)Cc2ccc(-c4ccccc4)cc2)O3)cc1 | inactive: 0.99
19 | CON=C(C(=O)NC1C(=O)N2C(C(=O)[O-])=C(CSc3nc(=O)c([O-])nn3C)CSC12)c1csc(N)n1.O.O.O.[Na+].[Na+] (configuration not stated) | active: 0.0494

Row | SMILES | relative growth
20 | C[C@H]1CN([C@@H](C)CO)C(=O)c2cccc(NC(=O)Nc3cccc4ccccc34)c2O[C@@H]1CN(C)S(=O)(=O)c1ccc(F)cc1 | inactive: 1.01
21 | C[C@@H]1CCCCO[C@@H](CN(C)Cc2ccc(C(F)(F)F)cc2)[C@@H](C)CN([C@@H](C)CO)C(=O)c2cc(NS(C)(=O)=O)ccc2O1 | inactive: 0.977
22 | COc1ccc(S(=O)(=O)Nc2cccc3c2O[C@H](CN(C)Cc2ccncc2)[C@H](C)CN([C@H](C)CO)C3=O)cc1 | inactive: 1.01
23 | C[C@@H]1CCCCO[C@@H](CN(C)C)[C@H](C)CN([C@H](C)CO)C(=O)c2cc(NC(=O)Nc3cccc4ccccc34)ccc2O1 | inactive: 1.01
24 | C[C@@H]1CN([C@@H](C)CO)C(=O)c2cc(NS(=O)(=O)c3ccc(Cl)cc3)ccc2O[C@H]1CN(C)Cc1ccc(C(=O)Nc2ccccc2N)cc1 | inactive: 0.994
25 | COCCOC(=O)N1C(=O)[C@@]2(c3cc(C#CCCO)ccc31)[C@H](c1ccccc1OCCO)N1[C@H](c3ccccc3)[C@H](c3ccccc3)OC(=O)[C@H]1[C@@H]2C(=O)NC[C@H](O)c1ccccc1 | inactive: 0.995
26 | CCCC(=O)Nc1ccc2c(c1)C(=O)N(C)C[C@@H](OC)[C@H](C)CN(S(=O)(=O)c1cn(C)cn1)[C@H](C)CO2 | inactive: 0.992
27 | CO[C@H]1CN(C)C(=O)c2cc(NC(=O)CC(F)(F)F)ccc2OC[C@@H](C)N(C(=O)C2CCOCC2)C[C@@H]1C | inactive: 0.926
28 | C[C@@H]1CN([C@@H](C)CO)C(=O)c2cccc(NS(C)(=O)=O)c2O[C@@H]1CN(C)C(=O)Nc1ccc2c(c1)OCO2 | inactive: 0.949
29 | COc1ccc(CN(C)C[C@@H]2OCCCC[C@@H](C)Oc3ccc(NC(=O)Nc4ccccc4)cc3C(=O)N([C@@H](C)CO)C[C@@H]2C)cc1 | inactive: 0.979
30 | O=C(C[C@@H]1CC[C@H]2[C@@H](COC[C@@H](O)CN2C(=O)c2ccccn2)O1)NC1CCC1 | inactive: 1.03
31 | N[C@@]1(C(=O)O)CO[C@H]2[C@H](C(=O)O)[C@H]21 | inactive: 0.99
32 | Cc1cccc(S(=O)(=O)N2C[C@@H](O)COC[C@@H]3O[C@H](CC(=O)NCc4ccncn4)CC[C@H]32)c1 | inactive: 1.01
33 | C[C@@H]1CCCCO[C@H](CN(C)C(=O)c2ccccc2)[C@@H](C)CN([C@H](C)CO)C(=O)c2cc(NS(=O)(=O)c3ccccc3)ccc2O1 | inactive: 1.01
34 | C[C@@H]1CN([C@H](C)CO)C(=O)c2cccc(NC(=O)c3cnccn3)c2O[C@H]1CN(C)S(=O)(=O)c1ccc(F)cc1 | inactive: 1.02
35 | C[C@@H]1CN([C@H](C)CO)C(=O)Cc2cc(NC(=O)CCC(F)(F)F)ccc2O[C@H]1CN(C)S(=O)(=O)c1cn(C)cn1 | inactive: 0.988
36 | COCC#Cc1cnc2c(c1)C(=O)N([C@H](C)CO)C[C@@H](C)[C@@H](CN(C)C(=O)Nc1ccccc1OC)O2 | inactive: 0.999
37 | COc1ccc(S(=O)(=O)N(C)C[C@@H]2Oc3ccc(NS(=O)(=O)c4cccs4)cc3CC(=O)N([C@@H](C)CO)C[C@H]2C)cc1 | inactive: 1
38 | CCCC(=O)Nc1ccc2c(c1)C(=O)N(C)C[C@H](OC)[C@H](C)CN(Cc1ccc(-c3ccccn3)cc1)[C@H](C)CO2 | inactive: 0.989

Row | SMILES | relative growth
39 | COc1ccc(CN(C)C[C@@H]2OCCCC[C@@H](C)Oc3ccc(NC(=O)Nc4ccc5c(c4)OCO5)cc3C(=O)N([C@H](C)CO)C[C@@H]2C)cc1 | inactive: 1.01
40 | COC(=O)c1cn(CC(=O)Nc2ccon2)nn1 | inactive: 0.982
41 | C[C@H](CO)N1C[C@H](C)[C@H](CN(C)CC2CCCCC2)OCCCC[C@H](C)Oc2ccc(NC(=O)CCCCCC(=O)Nc3ccccc3N)cc2C1=O | inactive: 0.945
42 | C[C@H](CO)N1C[C@H](C)[C@H](CN(C)Cc2ccc(C(=O)O)cc2)Oc2c(NS(C)(=O)=O)cccc2C1=O | inactive: 0.995
43 | COc1ccc(S(=O)(=O)Nc2cccc3c2O[C@@H](CN(C)C(=O)Nc2c(C)noc2C)[C@H](C)CN([C@H](C)CO)C3=O)cc1 | inactive: 1.02
44 | C[C@@H]1CN([C@H](C)CO)C(=O)CCCn2cc(nn2)CO[C@@H]1CN(C)C(=O)CCCN(C)C | inactive: 0.973
45 | C[C@H](CO)N1C[C@H](C)[C@H](CN(C)S(=O)(=O)c2ccccc2)Oc2ccc(NC(=O)c3ccncc3)cc2CC1=O | inactive: 0.988
46 | COCC#Cc1ccc2c(c1)O[C@H](CN(C)C(=O)C1CCOCC1)[C@H](C)CN([C@@H](C)CO)S2(=O)=O | inactive: 1.01
47 | C[C@@H]1CN([C@@H](C)CO)C(=O)Cc2cc(NC(=O)CCN3CCOCC3)ccc2O[C@H]1CN(C)S(=O)(=O)c1cn(C)cn1 | inactive: 1
48 | Cc1cccc(NC(=O)C(=O)NCCCO)c1 | inactive: 0.803
49 | C[C@@H]1CN([C@@H](C)CO)C(=O)c2ccccc2-c2ccccc2CO[C@H]1CN(C)C(=O)Nc1ccc(-c2ccccc2)cc1 | inactive: 0.984
50 | Cc1noc(C)c1NC(=O)N(C)C[C@@H]1Oc2ccc(NS(C)(=O)=O)cc2CC(=O)N([C@@H](C)CO)C[C@H]1C | inactive: 0.98
51 | Cc1noc(C)c1S(=O)(=O)Nc1ccc2c(c1)CC(=O)N([C@@H](C)CO)C[C@H](C)[C@H](CN(C)Cc1ccc(C(=O)O)cc1)O2 | inactive: 1
52 | O=C(C[C@H]1C[C@@H]2c3cc(NS(=O)(=O)c4ccccc4)ccc3O[C@@H]2[C@H](CO)O1)NC1CCCCC1 | inactive: 0.987
53 | O=C(CN1CCOCC1)NCC[C@@H]1CC[C@@H](NC(=O)Cc2ccccn2)[C@H](CO)O1 | inactive: 0.99
54 | C[C@H](CO)N1C[C@H](C)[C@H](CN(C)S(=O)(=O)c2cn(C)cn2)Oc2ccc(NC(=O)Cn3cnnn3)cc2CC1=O | inactive: 0.975
55 | C[N+](C)(C)CCCC[C@@H]1NC(=O)[C@@H]2C[C@H](C(=O)NCCCCCNC(=O)CS)[C@H](c3ccc(O)cc3)N2C1=O | inactive: 1.01
56 | COc1ccc(S(=O)(=O)N(C)C[C@@H]2OCCCC[C@H](C)Oc3ccc(NC(=O)NC4CCCCC4)cc3C(=O)N([C@H](C)CO)C[C@@H]2C)cc1 | inactive: 1.04
57 | Cc1ccc(CSc2nnc(CCN)o2)cc1 | inactive: 1.01
